# Measurements: article PMC4336329 (PLoS ONE, 2015)
# Screen size: about 310,000 compounds; about 14,000 (4.5%) showed an effect of 50% or more. The effect is printed as a negative number. The list shows a part of the results.
# Target: human ether-à-go-go-related gene (hERG) potassium channel (human, UniProt Q12809)
# Assay: primary screen, population patch clamp on CHO cells stably expressing hERG
# 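Note: peak tail current of the secondary pulse compared with the same well before compound.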
# Sequence of human ether-à-go-go-related gene (hERG) potassium channel (Q12809 whole entry, looked up): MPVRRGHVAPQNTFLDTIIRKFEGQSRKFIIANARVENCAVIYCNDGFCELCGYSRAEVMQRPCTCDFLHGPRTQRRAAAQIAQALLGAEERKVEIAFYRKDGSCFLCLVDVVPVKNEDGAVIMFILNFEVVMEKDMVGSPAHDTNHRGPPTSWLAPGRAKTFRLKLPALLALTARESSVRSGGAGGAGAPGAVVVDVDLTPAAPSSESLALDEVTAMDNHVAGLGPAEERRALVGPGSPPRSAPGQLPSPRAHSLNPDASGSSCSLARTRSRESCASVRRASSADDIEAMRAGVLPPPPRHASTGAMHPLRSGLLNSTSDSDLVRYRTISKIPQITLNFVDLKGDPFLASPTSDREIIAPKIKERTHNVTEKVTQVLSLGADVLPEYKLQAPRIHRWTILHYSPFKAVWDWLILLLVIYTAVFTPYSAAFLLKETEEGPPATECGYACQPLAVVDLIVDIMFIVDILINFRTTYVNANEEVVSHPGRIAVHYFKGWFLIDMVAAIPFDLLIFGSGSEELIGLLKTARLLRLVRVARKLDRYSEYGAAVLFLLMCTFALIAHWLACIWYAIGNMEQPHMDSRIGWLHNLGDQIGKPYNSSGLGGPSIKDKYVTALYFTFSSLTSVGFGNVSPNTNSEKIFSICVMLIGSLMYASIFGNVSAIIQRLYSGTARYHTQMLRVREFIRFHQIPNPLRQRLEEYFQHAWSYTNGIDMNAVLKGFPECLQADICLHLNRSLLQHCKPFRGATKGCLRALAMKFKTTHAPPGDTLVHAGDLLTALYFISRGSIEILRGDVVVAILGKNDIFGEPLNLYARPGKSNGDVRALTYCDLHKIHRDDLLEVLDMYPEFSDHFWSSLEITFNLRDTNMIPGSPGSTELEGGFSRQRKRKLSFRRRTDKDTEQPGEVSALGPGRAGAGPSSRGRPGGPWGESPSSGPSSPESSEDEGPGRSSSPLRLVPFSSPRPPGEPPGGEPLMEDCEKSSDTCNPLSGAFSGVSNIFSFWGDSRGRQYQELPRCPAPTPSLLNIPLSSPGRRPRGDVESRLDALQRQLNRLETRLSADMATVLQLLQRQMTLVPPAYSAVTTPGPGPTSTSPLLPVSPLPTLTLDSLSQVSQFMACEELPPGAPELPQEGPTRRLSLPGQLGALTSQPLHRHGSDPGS
row,SMILES,"hERG current change (%, negative = inhibition) at 10uM [%]"
1,CCCc1cc(=O)[nH]c(SCC(=O)Nc2cc3c(cc2C(C)=O)OCO3)n1,18.2
2,COc1ccc(C(=O)N(c2ccccc2)C2C=CS(=O)(=O)C2)cc1 (centres unmarked),-2.2
3,COc1ccccc1NC(=O)c1cc(C)oc1C,3.19
4,CCc1nn(-c2ccccc2)c(N)c1C#N,-2.2
5,COC(=O)c1ccc(C)c(NC(=O)c2nn(C)c(=O)c3ccccc23)c1,5.75
6,CC1CCc2cc(F)ccc2N1C(=O)C1(C)CC1(Cl)Cl (centres unmarked),4.51
7,CCSc1nnc(NC(=O)c2cc(-c3ccccc3O)n[nH]2)s1,3.44
8,CCC(=O)NC(Nc1cc(C)cc(C)n1)(C(F)(F)F)C(F)(F)F,9.81
9,CCOC(=O)C1CCN(S(=O)(=O)c2cc3c(cc2C)NC(=O)CO3)CC1,-54.9
10,CC(C)C[C@H](NC(=O)CCn1nnc2ccccc2c1=O)C(=O)O,1.62
11,Nc1nc(Nc2cccc3ccccc23)nc(C2CCCC2=O)n1 (centres unmarked),12.2
12,COc1cc(NC(=O)c2ccccc2NS(=O)(=O)c2ccc(Cl)s2)cc(OC)c1,2.62
13,O=C(O)CN=C1NC2(CCCC2)Cc2ccccc21,9.41
14,CC(C)c1nnc(NC(=O)CCC(=O)N2CCN(c3ccccn3)CC2)s1,-7.7
15,O=C(O)c1cccnc1-c1ncccc1C(=O)O,1.75
16,Cc1ccc(S(=O)(=O)N/N=C\c2ccc([N+](=O)[O-])o2)cc1,-2.21
17,Cc1cc(C)n2nc(SCC(=O)N/N=C/c3ccccc3F)nc2n1,2.94
18,CSCC(C)N1CCC(n2nccc2NC(=O)CCCc2ccccc2)CC1 (centres unmarked),-47.5
19,CCCCS(=O)(=O)Nc1ccc(C)cn1,12.8
20,Cc1nn(CCC(=O)N2CCN(S(=O)(=O)c3ccccc3)CC2)c(C)c1C,4.03
21,CCCSc1nc2ccccc2n1CC(=O)O,32.9
22,CCCCOC(=O)Nc1cc(C)c(Cl)cc1OC,-8.48
23,O=C(c1cn2ccccc2n1)N1CCc2c([nH]c3ccccc23)C1c1ccccn1 (centres unmarked),-3.58
24,O=c1c2ccccc2nc(/C=C/c2ccc(O)cc2)n1CCc1ccccc1,-17.3
25,Cc1ccc(Oc2ccccc2NC(=O)C2=COCCO2)cc1,-9.32
26,CCN(CC)S(=O)(=O)c1cc(NC(=O)COC(=O)Cn2cnc3ccccc32)ccc1C,3.9
